How the values were obtained:
L. monocytogenes = experiment: Evaluation of benzophenone glucoside on agar (Table 6); design: key: ++: strong growth; Tr: trace growth; conditions: ferric ammonium nitrate at 500 mg/l
Text: (§1) This was achieved using a densitometer.
(§2) The background agar was beige.

E. faecalis = experiment: as above; design: key: ++: strong growth; Tr: trace growth; conditions: ferric ammonium nitrate at 500 mg/l
Text: as §1, §2

K. pneumoniae = experiment: Substrate hydrolysis on Columbia agar; design: key: +: Positive reaction with the substrate; ++: Strong positive reaction with the substrate; −: No detectable reaction; −*: indicates expected positive reaction as determined using indoxyl glucosides; conditions: 300 mg/l, 18 hours
Text: as §1
(§3) The same method was used as in Example 1.

Serratia spp. = experiment: Substrate hydrolysis on Columbia agar; design: key: +: Positive reaction with the substrate; ++: Strong positive reaction with the substrate; −: No detectable reaction; −*: indicates expected positive reaction as determined using indoxyl glucosides; conditions: 300 mg/l, 18 hours
Text: as §1, §3

E. cloacae = experiment: Substrate hydrolysis on Columbia agar; design: key: +: Positive reaction with the substrate; ++: Strong positive reaction with the substrate; −: No detectable reaction; −*: indicates expected positive reaction as determined using indoxyl glucosides; conditions: 300 mg/l, 18 hours
Text: as §1, §3

Compound	growth (L. monocytogenes)	growth (E. faecalis)	Hydrolysis by Gram negative bacteria (K. pneumoniae; K. pneumoniae KPN 2)	Hydrolysis by Gram negative bacteria (K. pneumoniae; K. pneumoniae KPN 3)	Hydrolysis by Gram negative bacteria (K. pneumoniae; K. pneumoniae KPN 4)	Hydrolysis by Gram negative bacteria (K. pneumoniae; K. pneumoniae NCTC 10896)	Hydrolysis by Gram negative bacteria (Serratia spp.; Serratia spp. SEX 3)	Hydrolysis by Gram negative bacteria (Serratia spp.; Serratia spp. SEX 4)	Hydrolysis by Gram negative bacteria (E. cloacae; E. cloacae ECL 1)	Hydrolysis by Gram negative bacteria (E. cloacae; E. cloacae ECL 2)	Hydrolysis by Gram negative bacteria (E. cloacae; E. cloacae ECL 3)	Hydrolysis by Gram negative bacteria (E. cloacae; E. cloacae ECL 4)	Hydrolysis by Gram negative bacteria (E. cloacae; E. cloacae NCTC 11936)
COc1c(C(=O)c2ccccc2)ccc(O[C@@H]2O[C@H](CO)[C@@H](O)[C@H](O)[C@H]2O)c1O [3,4-dihydroxy-2-methoxybenzophenone-4-β-D-glucopyranoside]	Tr	Tr											
3′,4′-dihydroxyflavone-4′-β-D-glucopyranoside sodium salt [DHF-glucoside]			−*	−*	−*	−*	−*	−*	−*	−*	−*	−*	−*

Source: patent US7531646B2, “β-D-ribosidase activity indicators with a chromogenic substrate” (priority 2001, dated 2009)
